Structures are written as SMILES. Hit rate of the full screen: of about 52,000 compounds, about 1,700 (3.3%) were called active. Rule as the data show it: active = survival mostly below about 52% (no sharp cut-off); inactive = mostly above about 56%. This is one part of the list.

The test system of this assay is Wild type. The assay is described as follows: growth inhibition of S. aureus wild type versus tarO mutant, primary screen, teichoic acid synthesis inhibitors, RN4220, OD600 (AID 463173). The settings on record: S. aureus RN4220 wild type/DeltatarO growth, OD600, 18 h, stronger effect = lower value, screened at 18.75 µg/mL (by protocol).
`Cc1ccc2[nH]c(-c3ccccc3)c(CN(C)C)c(=O)c2c1`: the survival was inactive: 110%.
To `CCOC(=O)c1cn(CC(=O)Nc2ccc(OC)cc2OC)nn1` belongs inactive: 88%; to `CCN(C(=O)c1sc2nc3n(c(=O)c2c1C)CCCCC3)c1ccc(OC)cc1`, inactive: 83%; to `COc1ccc(C)cc1NC(=O)NC(C)c1c(-n2cccc2)sc(C)c1C` (stereo unspecified), inactive: 39%.
To `CCN(CC)CCCNc1sc(S(=O)(=O)c2ccccc2)nc1S(=O)(=O)c1ccc(Cl)cc1` belongs inactive: 88%; to `CCOC(=O)c1c(C)[nH]c(CCC(=O)NC(C)c2ccccc2)c1C` (stereo unspecified), inactive: 71%.
To `Cc1ccc(Cl)cc1NC(=O)Cn1c(=O)n(CCC(=O)NCc2ccc3c(c2)OCO3)c(=O)c2sccc21` belongs inactive: 108%; to `COC(=O)C(NC(=O)CCc1c(C)nc2c(-c3ccccc3)c(C)nn2c1C)C(C)C` (stereo unspecified), inactive: 120%; to `CCCC(=O)Nc1nnc(S(=O)(=O)N2CCCCCC2)s1`, inactive: 85%.
Consider `O=C(NCc1ccc(Cl)cc1)c1ccc(CN2CCOCC2)cc1`, for which the survival is inactive: 101%.
To `CC(C)Cc1ccc(S(=O)(=O)N2CCN(Cc3noc(CCC(=O)N4CCCCC4)n3)CC2)cc1` belongs inactive: 70%; to `COc1ccc(C2C(C(=O)Nc3ccccc3)=C(C)Nc3nc(SCC(=O)c4ccc(C)cc4)nn32)cc1` (stereo unspecified), inactive: 70%.
On to `CC1=C(c2ccc(F)cc2)S(=O)(=O)N=C1N1CCC(C(=O)NCCc2ccccc2C)CC1`, for which the survival was inactive: 100%.
To `Cc1c(C(=O)Nc2ccc(-n3c(C)nc4ccccc4c3=O)cc2)cccc1[N+](=O)[O-]` belongs inactive: 80%.
On to `Cc1cc(C)nc(-n2nc(C)c3c2NC(=O)CC3c2cccc(O)c2)n1` (stereo unspecified), for which the survival was inactive: 89%.
To `CCOc1cc2c(cc1OCC)C(CC(=O)O)N(C(=O)Nc1ccccc1C(F)(F)F)CC2` (stereo unspecified) belongs inactive: 76%; to `NC(=O)CN1CCN(Cc2ccc3c(c2)OCO3)CC1`, inactive: 116%; to `O=C(O)C1C2C=CC(C2)C1C(=O)NC1CCN(Cc2ccccc2)CC1` (stereo unspecified), inactive: 113%.
To `Cc1cc2nn(-c3ccc(F)cc3)nc2cc1NC(=O)c1cccc2c(Cl)cccc12` belongs inactive: 71%.
To `C#CCn1c(O)c(N=NC(=O)c2ccccc2-n2cccc2)c2ccccc21` belongs inactive: 108%; to `CCOC(=O)c1ccc2c(c1)N(Cc1ccc(F)cc1Cl)C(=O)c1ccccc1S2(=O)=O`, inactive: 138%; to `CCn1c(C)c(C)c2cc(C(=O)NCc3ccc(F)cc3)ccc21`, inactive: 73%.
Turning to `Cc1ccc2[nH]c(=O)c(CN(Cc3ccccc3)C(=O)c3ccco3)cc2c1`, the survival was inactive: 106%.
To `COc1ccc(-n2cc(-c3ccccc3)c3c(Nc4ccc(OC)c(OC)c4)ncnc32)cc1` belongs inactive: 143%.
To `Cc1cccc(C)c1NCc1nnc(SCC#N)n1-c1ccccc1` belongs inactive: 108%; to `COc1cc(OC)c(NC(=O)Nc2cccc(OCc3cc(=O)n4ccccc4n3)c2)cc1Cl`, inactive: 87%; to `CCC(=O)N1CCc2cc(Br)cc(S(=O)(=O)N3CCN(c4ccccc4OC)CC3)c21`, inactive: 72%.
Turning to `CCOC(=O)CC(=O)CSc1nc2ccsc2c(=O)n1Cc1ccccc1`, the survival was inactive: 133%.
In the case of `Cc1noc(-c2ccc(NC(C)c3ccccc3)c([N+](=O)[O-])c2)n1` (stereo unspecified), the survival is inactive: 87%.
As to `Cc1ccc(CNC(=O)c2nc(SCc3ccccc3C)ncc2Cl)cc1`, the survival was inactive: 91%.
To `CC1(c2ccccc2)CC(C)(C)N(C(=O)c2cccc(Cl)c2)c2ccccc21` (stereo unspecified) belongs active: 6%; to `COc1ccccc1NC(=O)c1ccc(CN2C(=O)C(C)=C(c3ccc(C)c(C)c3)S2(=O)=O)cc1`, inactive: 84%.
To `Cc1cccc(N2C(=O)NC(=O)/C(=C\c3cn(CC(=O)NCc4ccco4)c4ccccc34)C2=O)c1` belongs inactive: 117%; to `c1ccc2c(c1)COC(CCN1CCN(CCC3OCc4ccccc4CO3)CC1)OC2`, inactive: 94%.
To `Cc1ccc(CNC(=O)c2ccc(CSCc3cccc(C)c3)o2)cc1` belongs inactive: 78%; to `Cc1ccc(CCNS(=O)(=O)c2c(C)nc3sc(C)c(C)n3c2=O)cc1`, inactive: 86%.
Turning to `COc1cccc(-c2nnc(-c3ccccc3NC(=O)c3ccc(F)cc3F)o2)c1`, the survival is inactive: 72%.
`Cc1ccc(C)c(OCCn2c(CCNC(=O)C3CCCCC3)nc3ccccc32)c1`: the survival is inactive: 104%.
`Cc1cc(C)cc(-n2c(SCC(=O)N3CCOCC3)nc3c([nH]c4ccccc43)c2=O)c1`: the survival was inactive: 133%.
To `O=C1C(=O)N(C2CCN(C(=O)c3ccccc3Cl)CC2)CCN1Cc1ccc(F)cc1` belongs inactive: 60%; to `CC1S/C(=N\NC(=O)CNc2cccc(Cl)c2)N(c2ccccc2)C1=O` (stereo unspecified), inactive: 119%; to `Cc1ccc(NS(=O)(=O)c2ccc3[nH]c4c(c3c2)CCCC4)cc1N(C)C`, inactive: 81%.
Turning to `Cc1nc2ccn(Cc3cccs3)c(=O)c2cc1C(=O)N1CCN(c2ccccc2F)CC1`, the survival is inactive: 65%.
With `CC1CCN(S(=O)(=O)c2ccc3c(c2)N(CC(=O)NCCc2ccccc2)C(=O)CO3)CC1`, the survival is inactive: 94%.
To `COc1cccc(NC(=O)c2ccc3c(c2)CCN3S(C)(=O)=O)c1` belongs inactive: 81%; to `COc1ccc(C2=CC(c3ccccc3Cl)n3nc(-c4ccc(Cl)cc4)nc3N2)cc1` (stereo unspecified), inactive: 81%; to `COc1ccccc1CNC(=O)CCS(=O)(=O)c1ccc2c(c1)CCN2C(C)=O`, inactive: 65%.
To `Cc1nc2nc(NCc3ccc(Cl)cc3)[nH]n2c(=O)c1Cc1ccccc1` belongs inactive: 61%; to `Cc1ccc(Cl)cc1N1CCN(C(=O)Cn2cnc3sc(C)c(S(=O)(=O)N4CCC(C)CC4)c3c2=O)CC1`, inactive: 81%; to `COC(=O)c1scc(-c2ccc(C)cc2)c1S(=O)(=O)N1CCN(c2ccc(C(C)=O)cc2)CC1`, inactive: 98%.
To `CC1CCc2c(sc(NC(=O)C3c4ccccc4Oc4ccccc43)c2C#N)C1` (stereo unspecified) belongs inactive: 80%.
Regarding `Cc1ccc(-n2c(=O)c3c(C)c(C)sc3n(CC(=O)NCc3ccccc3)c2=O)cc1C`, the survival was inactive: 93%.
To `CCCn1c(CCC(=O)Nc2ccc(OCC)cc2)nc2cccnc21` belongs inactive: 83%; to `COc1ccc2nc(SCC(=O)Nc3ccc(N4CCCC4)cc3)c(C#N)cc2c1`, inactive: 104%; to `CCOC(=O)c1c(C)oc2nc(C)nc(NCc3ccc(F)cc3)c12`, inactive: 69%.
To `COc1ccc(C(=O)Nc2nnc(SCc3cc(=O)c4cc(C)cc(C)c4[nH]3)s2)cc1` belongs inactive: 78%; to `CCOc1ccc(CCNC(=O)CCCn2c(=O)c3cccn3c3ccccc32)cc1`, inactive: 67%; to `C=CCNC(=O)C1CC(=O)N(c2ccc(OCC(=O)Nc3ccc(F)c(Cl)c3)cc2)C1` (stereo unspecified), inactive: 111%.
To `Cc1ccc(CNC(=O)CCCn2c(=O)c3ccccc3n(CC(=O)Nc3ccc(C)c(C)c3)c2=O)cc1` belongs inactive: 80%.
Turning to `Cc1ccc(Cl)cc1NC(=O)C(C)n1nc(-c2ccccc2)ccc1=O` (stereo unspecified), the survival is inactive: 41%.
`COC(=O)NCC(c1cccnc1)N1CCN(c2ccc(F)cc2)CC1` (stereo unspecified): the survival was inactive: 83%.
To `Cc1ccc(-n2ncc3c(NCCC4=CCCCC4)ncnc32)cc1` belongs active: -3%; to `CC(C)OC(=O)CC12CN(C)CC(CC(=O)OC(C)C)(CN(C)C1)C2=O`, inactive: 114%; to `Cn1c(=O)c2c(nc(SCC(=O)Nc3ccccc3F)n2Cc2ccc(Cl)cc2)n(C)c1=O`, inactive: 88%.
To `CCc1ccccc1NC(=O)CCNS(=O)(=O)c1ccc2c(c1)CCN2C(=O)C1CC1` belongs inactive: 73%.
Turning to `COc1ccccc1N1CCN(S(=O)(=O)c2c(C)sc3ncn(CC(=O)N(C)c4ccc(Cl)cc4)c(=O)c23)CC1`, the survival was inactive: 72%.
To `CCNC(=O)c1c(NC(=O)Cc2coc3cc(C)cc(C)c23)sc2c1CCCC2` belongs inactive: 95%; to `O=C1CCCN1c1ccc(S(=O)(=O)N2CCCCC2)cc1`, inactive: 106%; to `Oc1c(C(c2ccccc2F)N2CCN(Cc3ccccc3)CC2)sc2nc(-c3ccco3)nn12` (stereo unspecified), inactive: 113%.
Consider `Cc1c(C(=O)N2CCC(c3nc4ccccc4s3)CC2)oc2ccc(Cl)cc12`, for which the survival was inactive: 66%.
To `Cc1ccc(-n2ncc3c(Nc4cccc(C)c4C)ncnc32)cc1` belongs inactive: 78%; to `CCOc1ccccc1N(C)C(=O)C1CCCN(c2ncnc3c2nc2n3CCCCC2)C1` (stereo unspecified), inactive: 72%; to `Cc1cc(C)c2c(=O)nc(SCc3ccccc3C)n(C3CC3)c2n1`, inactive: 97%.
To `Cc1ccc(NC(=O)c2cc(-c3ccc(Br)s3)nc3ccccc23)cc1F` belongs inactive: 86%; to `C=CCn1c(C)c(C=C(C#N)C#N)c2ccccc21`, inactive: 104%.
Turning to `Cc1ccc2c(CC(=O)Nc3ccc(S(=O)(=O)N4CCCCC4)cc3)coc2c1`, the survival was inactive: 68%.
`Cc1ccc(Cl)cc1NC(=O)Cn1c(=O)oc2cc(S(=O)(=O)N3CCCC3)ccc21`: the survival was inactive: 98%.
To `CCC1=[N+](CC(=O)c2ccccc2)CCn2cccc21` belongs inactive: 80%.
To `COc1ccc(C(=O)OC2=C(C(=O)c3ccccc3)N(C)S(=O)(=O)c3ccccc32)cc1OC` belongs inactive: 132%; to `COCCn1c(=NC(=O)c2ccc3c(c2)OCCO3)sc2cc(C(=O)OC)ccc21`, inactive: 68%; to `COc1ccccc1N1CCN(CCCNC(=O)c2cnn(-c3cccc(Cl)c3)c2C2CCN(C(=O)OC(C)(C)C)CC2)CC1`, inactive: 85%.
In the case of `Cc1ccc(CN2C(=O)C3(c4ccccc42)N(c2cccc(F)c2)C(=O)CS3(=O)=O)cc1` (stereo unspecified), the survival is inactive: 71%.
In the case of `CCOc1ccc(CNC(=O)Cn2cc3c(n2)-c2c(oc(C(=O)N4CCOCC4)c2C)CC3)cc1`, the survival was inactive: 87%.
Take `COc1cc(NC(=O)NC(C)c2c(-n3cccc3)sc3c2CCCC3)cc(OC)c1OC` (stereo unspecified): the survival was inactive: 72%.
For `Cc1ccccc1CN1CCC(CNc2ncnc3onc(-c4ccc(F)cc4)c23)CC1`, the survival is inactive: 129%.
To `CCOC(=O)c1c(C)c(-c2ccccc2)n(CC(=O)Nc2cc(C)ccc2OC)c1C` belongs inactive: 87%.

These data come from PubChem BioAssay AID463173 (ICCB-Longwood Screening Facility, Harvard Medical School, 2010).
